The full ranking holds about 110,000 compounds; the median of “z-score” is about -0.1, and the highest 2% start at about 2. Some of the results follow. Activity calls are given as the source filed them.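 Rule for the calls: active = z-score in the third read window above 3 or below -3; inactive = the rest.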
Each compound was assayed against Metabotropic glutamate receptor 8 (Rattus norvegicus) (UniProt P70579) (assay: rat mGluR8 modulators via GIRK flux, primary screen, cell-based, thallium flux, HTS (AID 488969)). Settings: HEK293 rat mGluR8, GIRK (G protein-gated inwardly rectifying potassium channel) thallium flux, FluoZin2; at 10 µM; stronger effect = higher value.
UniProt P70579, sequence (P70579 whole entry, looked up): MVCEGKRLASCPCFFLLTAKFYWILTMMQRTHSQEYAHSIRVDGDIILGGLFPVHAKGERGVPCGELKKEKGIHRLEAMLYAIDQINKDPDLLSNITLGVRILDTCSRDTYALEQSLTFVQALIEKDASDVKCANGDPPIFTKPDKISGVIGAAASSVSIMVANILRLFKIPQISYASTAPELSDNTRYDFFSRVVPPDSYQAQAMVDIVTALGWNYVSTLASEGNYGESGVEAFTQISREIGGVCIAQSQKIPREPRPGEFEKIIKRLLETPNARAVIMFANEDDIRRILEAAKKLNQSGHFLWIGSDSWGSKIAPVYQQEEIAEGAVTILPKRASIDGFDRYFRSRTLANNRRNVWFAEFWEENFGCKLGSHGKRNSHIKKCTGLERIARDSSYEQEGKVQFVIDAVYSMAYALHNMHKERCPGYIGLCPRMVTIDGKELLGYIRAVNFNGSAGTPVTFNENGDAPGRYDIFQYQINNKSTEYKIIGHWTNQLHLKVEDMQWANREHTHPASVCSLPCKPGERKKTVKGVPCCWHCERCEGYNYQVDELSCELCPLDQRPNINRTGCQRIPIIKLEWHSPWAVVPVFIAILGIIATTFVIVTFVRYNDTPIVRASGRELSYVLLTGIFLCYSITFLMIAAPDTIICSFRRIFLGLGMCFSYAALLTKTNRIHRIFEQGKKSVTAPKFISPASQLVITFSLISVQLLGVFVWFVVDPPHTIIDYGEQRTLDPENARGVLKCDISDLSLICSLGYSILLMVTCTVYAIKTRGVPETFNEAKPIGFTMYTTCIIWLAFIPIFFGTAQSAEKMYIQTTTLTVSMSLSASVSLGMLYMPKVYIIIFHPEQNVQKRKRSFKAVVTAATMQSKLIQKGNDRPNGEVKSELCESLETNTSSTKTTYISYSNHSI

| SMILES | z-score |
| --- | --- |
| CCCCC1(CCCC)C(=O)NC(=Nc2cccc(C)c2)NC1=O | -0.0837 |
| CCOC(=O)CC1=C(C(=O)OCC)C2(C(=O)Nc3ccccc32)C(C#N)=C(N)O1 (centres undefined) | 0.195 |
| CC1CCN(CC(=O)c2ccccc2Cl)CC1 | -0.387 |
| Cc1ccc2c(c1)C1CN(C)CCC1N2C(=O)c1ccc(Br)o1 (centres undefined) | -0.216 |
| CC1CN(O)C2CCc3c(no[n+]3[O-])C12O (centres undefined) | -0.143 |
| Cn1c[n+](C)cc1C(O)c1ccccc1 (centres undefined) | -0.156 |
| CCN(CC)c1ccc(N=Cc2c(O)n(-c3cc(OC)ccc3OC)c(=O)[nH]c2=O)cc1 | -0.4 |
| Cc1cc(C(=O)N=Nc2c(O)n(C)c3ccccc23)c(C)o1 | 0.229 |
| Cc1cc([N+](=O)[O-])c(Cl)cc1NC(=O)C(C)C | -0.0536 |
| Cn1c2ccccc2c2cnn(CC(=O)N3CCC4(CC3)OCCO4)c(=O)c21 | 0.199 |
| Cc1c(N=Cc2c(O)n(Cc3ccco3)c(=O)[nH]c2=O)c(=O)n(-c2ccccc2)n1C | -0.625 |
| O=C(COc1ccc(Br)cc1)N1CCN(Cc2ccncc2)CC1 | 0.813 |
| COc1ccc(C(CC(=O)N2CCC3(CC2)OCCO3)NS(=O)(=O)c2ccc(F)cc2)cc1 (centres undefined) | -0.351 |
| CCCCSP1(=S)NCCCO1 (centres undefined) | -0.205 |
| COc1cc(N2CCOCC2)ccc1/C=C1\C(=O)NC(=O)N(C2CCCCC2)C1=O | -0.196 |
| N#Cc1ccc(N2CCNCC2)c(F)c1 | 0.268 |
| CCOC(=O)C(O)(c1ccc(N(CC)S(=O)(=O)c2ccc(C)cc2)cc1)C(F)(F)F (centres undefined) | 2.37 |
| C=CCn1c(O)c(C=Nc2ccc(N(CC)CC)cc2)c(=O)[nH]c1=O | -0.521 |
| COC(=O)c1ccc(COc2cc(C)cc3oc(=O)c4c(c23)CCCC4)o1 | -1.28 |
| N#Cc1cc2c(nc1SCC(=O)Nc1ccc(Cl)cc1)C1CCN2CC1 | -0.826 |
| CCOC(=O)c1c(-n2c(C)cc(/C=C3\C(=O)NC(=O)N(C)C3=O)c2C)sc2c1CCCC2 | -1.11 |
| O=C1NC(=O)C(CCc2ccccn2)(Cc2ccc3c(c2)OCO3)C(=O)N1CCc1ccccc1 (centres undefined) | -0.603 |
| c1ccc(-c2[nH]c[n+](CC3CO3)c2-c2ccccc2)cc1 (centres undefined) | -0.103 |

| SMILES | z-score |
| --- | --- |
| CCC(C)n1c(O)c(/C=N/N2CCOCC2)c(=O)[nH]c1=S (centres undefined) | -0.197 |
| O=C(COc1ccc(Cl)cc1)NC1CN2CCC1CC2 (centres undefined) | -0.215 |
| Cc1cccc(C(O)(C(=O)NNC(=O)CN2CCN(C)CC2)c2cccc(C)c2)c1 | -0.488 |
| CCC(=O)c1c(O)n(C2CCCCCC2)c(=O)[nH]c1=O | -0.283 |
| C=CCN1C(=O)/C(=C/c2cc(C)n(-c3ccccn3)c2C)C(=O)NC1=S | -0.369 |
| COc1cccc(CN2CCN(C(=O)COc3ccc4ccccc4c3)CC2)c1 | -0.244 |
| COc1ccc(C2=NCc3nnc(C)n3-c3ccc(Cl)cc32)cc1Cl | 0.0544 |
| CCCCCCN=C(C)c1c(O)n(Cc2ccccc2)c(=O)[nH]c1=O | -0.194 |
| CCN1CC2(COC(=O)c3ccccc3N)CCC(OC)C34C5CC6C(OC)CC(O)(C5C6OC)C(O)(C(OC)C23)C14 (centres undefined) | -0.147 |
| Cc1ccc(-n2c(-c3cccs3)nc3ccccc3c2=O)cc1 | 0.454 |
| Cc1cc(NC(=O)COC(=O)c2c(C)nn(Cc3ccccc3Cl)c2C)no1 | -0.163 |
| Cn1c(O)c(C=NCc2ccco2)c(=O)n(C)c1=O | -0.19 |
| Cc1ccnc(-n2c(-c3ccccc3)nc3ccccc3c2=O)c1 | -0.155 |
| O=C(c1cc2ccccn2n1)N1CCC2(CC1)OCCO2 | active: 4 |
| CC(C)OC(=O)c1c(N)n(Cc2ccco2)c2nc3ccccc3nc12 | -2.62 |
| Cc1nn(Cc2ccccc2Cl)c(C)c1C(=O)OCC(=O)NC1CCCC(C)C1C (centres undefined) | -0.319 |
| Cc1ccc2c(c1)C1CN(C)CCC1N2C(=O)Cn1nnc(-c2ccccc2F)n1 (centres undefined) | -1.09 |
| COc1ccc(CC2C(=O)NC(=O)N(c3ccccc3)C2=O)c(OC)c1 (centres undefined) | 0.821 |
| CN1CCN(c2cc(N3CCCCCC3)c(F)cc2[N+](=O)[O-])CC1 | 1.51 |
| COc1ccc(/C=C2/C(=O)NC(=O)N(C3CCCCC3)C2=O)cc1CSc1ccccn1 | -0.105 |
| Cc1c(C=C2C(=O)N(C)C(=O)N(C)C2=O)c(=O)n(-c2ccccc2)n1C | 0.52 |
| COc1ccc(CCn2c(O)c(C=NCCCn3ccnc3)c(=O)[nH]c2=O)cc1OC | 0.744 |
| NP(=O)(OCC(F)(F)F)Oc1ccc(Cl)cc1 (centres undefined) | 0.0279 |

| SMILES | z-score |
| --- | --- |
| NCCc1ccc(O)cc1 | 0.452 |
| CCCS(=O)(=O)N1CCC(C(=O)N2CCC3(CC2)OCCO3)CC1 | 0.119 |
| CN1C(=O)C(=Cc2ccccc2Oc2ccc(Cl)cc2)C(=O)N(C)C1=O | -0.0352 |
| COc1cccc(/C=C2\N=C(c3cncc(Br)c3)OC2=O)c1 | -0.277 |
| Cc1cccc(CN2CCN(CC(=O)N3CCC4(CC3)OCCO4)C2=O)c1 | 0.321 |
| Cn1cccc1CNCCc1ccccc1 | active: 6.88 |
| CC(C)N(CC(O)c1cccc([N+](=O)[O-])c1)C(C)C (centres undefined) | -0.309 |
| COc1ccccc1N1C(=O)NC(=O)C2(Cc3cc(C)ccc3N(C)C2)C1=O (centres undefined) | -0.25 |
| Cc1ccccc1-n1c(-c2ccco2)nc2ccccc2c1=O | 0.0349 |
| O=c1c2ccccc2nc(CSc2ncnc3nc[nH]c23)n1-c1ccccc1 | 0.961 |
| O=C(Nc1ccc(Cl)cc1)Nc1nccs1 | active: 8.34 |
| Cc1nn(-c2ccccc2)c2c1CC1(C(=O)N(C)C(=O)N(C)C1=O)C1CCCCN21 (centres undefined) | -0.246 |
| COc1nc2ccccc2c(=O)n1-c1ccc(Cl)cc1 | -0.205 |
| CCCNC(=O)c1c(N)n(Cc2ccc3c(c2)OCO3)c2nc3ccccc3nc12 | -0.308 |
| Cc1ccc(CNCCc2ccccc2F)cc1 | 1.27 |
| CCCC(=O)c1c(O)[nH]c(=O)[nH]c1=O | -0.209 |
| Cc1ccc(C(=O)Nc2ccc(-n3ccnc3P(=O)(O)c3ccccc3)cc2)cc1 | 0.158 |
| COCC(C)OC(=O)c1c(N)n(Cc2ccco2)c2nc3ccccc3nc12 (centres undefined) | -2.53 |
| CCC(C)N1C(=O)/C(=C/c2ccc3c(c2)CCN3CCCCl)C(=O)NC1=S (centres undefined) | -0.358 |
| Cc1nn(Cc2ccccc2)c(Cl)c1C(=O)OCC(=O)Nc1cccc2ccccc12 | -0.000884 |
| O=C(Cc1ccccc1)N1CCN(CC2CC=CCC2)CC1 (centres undefined) | -0.0963 |
| O=C(COC(=O)c1ccccc1)Nc1ccc(Cl)cc1C(=O)c1ccccc1 | -0.0641 |
| Clc1cccc(C2NCCc3[nH]cnc32)c1 (centres undefined) | -0.0875 |
